± gives the standard deviation of the averaged measurements. The list shows a part of the results.
Each sequence was assayed on PfAP2-I AP2 domain 3 (GST-tagged) (assay: gcPBM binding intensity (ln(normalized median fluorescence intensity)); higher = stronger DNA binding).
Summary of the method: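 Binding intensity is defined as the maximum Masliner-normalised natural-log median intensity across replicate spots for either probe orientation. It was measured on an Agilent 4 × 180k array of primer-extended double-stranded 36-bp intergenic genomic probes and negative controls, to which GST-tagged P. falciparum DNA-binding domains made in E. coli were applied for 1 h in 1× PBS with 1% milk, 0.2 mg/ml BSA, 0.5% salmon testes DNA and 0.03% Triton X-100. Detection was by Alexa488 anti-GST antibody and scanning at 488 nm.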

**Q.** With “TATATATATATATATATATATACAAATATATATTAT [CACACA_negctrl_site1729]” as the sequence, how does the “gcPBM binding intensity (ln)” value read?
**A.** Its value is 9.31 ± 0.66.

**Q.** How did the “gcPBM binding intensity (ln)” value turn out when “TTGTATTATTATGTTGCACACATTTTATATAAAATA [CACACA_site3641]” was run?
**A.** Its value is 9.5 ± 0.099.

**Q.** For “ATAAAAGATATTTTTACACACTTTTGATGAGATCGT [CACACA_site3053]”, which “gcPBM binding intensity (ln)” value is on record?
**A.** Its value is 7.76 ± 0.72.

**Q.** How did the “gcPBM binding intensity (ln)” value turn out when “GGTTGTATAAGTTTTTGTACATATATATATATATAT [XGTACX_site7487]” was run?
**A.** The value was 9.26 ± 0.49.

**Q.** With “TTCAAGGTTTTAGATTGTACAATTATTATATATATA [XGTACX_site8982]” as the sequence, how does the “gcPBM binding intensity (ln)” value read?
**A.** The value was 8.56 ± 0.45.

**Q.** With “ATACCAACATATTATACACACCTTTATATTTTTTTT [CACACA_site5217]” as the sequence, how does the “gcPBM binding intensity (ln)” value read?
**A.** Its value is 8.2 ± 0.57.

**Q.** Which “gcPBM binding intensity (ln)” value does the source give for “TTTATTATACAAAATTGTACTTTATAATTTTATGTA [XGTACX_site5846]” here?
**A.** Its value is 7.62 ± 0.35.

**Q.** With “AAATATTACGGAATAAAGAGCTTTTAAATAATTTTA [CACACA_negctrl_site1700]” as the sequence, how does the “gcPBM binding intensity (ln)” value read?
**A.** The value was 7.22 ± 0.66.

**Q.** For “AAATATAAACGGCACACACACAAAAAAAGAAAAAAA [CACACA_site649]”, which “gcPBM binding intensity (ln)” value is on record?
**A.** Its value is 8.15 ± 0.26.

**Q.** “AGAAACCTTGTTAGTTAGCATATATATATATATATA [CACACA_negctrl_site372]” was tested. Which “gcPBM binding intensity (ln)” value did it give?
**A.** The value was 9.46 ± 0.46.

**Q.** For “TATTTTATACATATTTTACACACTAATATATACATA [CACACA_site7998]”, which “gcPBM binding intensity (ln)” value is on record?
**A.** Its value is 7.95 ± 0.47.

**Q.** With “AAATGTTATAACTCTTGAAAAAACAAAATATCATCA [CACACA_negctrl_site1156]” as the sequence, how does the “gcPBM binding intensity (ln)” value read?
**A.** The value was 7.57 ± 0.49.

**Q.** “ACTTTACAATATATATGTACATATTAATAAACATAT [XGTACX_site3689]” was tested. Which “gcPBM binding intensity (ln)” value did it give?
**A.** The value was 8.06 ± 0.43.

**Q.** “AAAATAATATATGTATGTACATATACACATATAGAA [XGTACX_site2218]” was tested. Which “gcPBM binding intensity (ln)” value did it give?
**A.** The value was 7.65 ± 0.4.

**Q.** Which “gcPBM binding intensity (ln)” value does the source give for “GAGTTTTTTTAATGATGTACATTTTAAAAATAAACG [XGTACX_site1036]” here?
**A.** The value was 7.88 ± 0.19.

**Q.** Which “gcPBM binding intensity (ln)” value does the source give for “GAACGCCATTCACATAAAGGGATACATAAATAAATA [XGTACX_negctrl_site330]” here?
**A.** Its value is 7.69 ± 0.34.

**Q.** For “GCGTTATTAAATAATTCACACACATATATATATATA [CACACA_site8711]”, which “gcPBM binding intensity (ln)” value is on record?
**A.** The value was 9.36 ± 0.33.

**Q.** “AAGAAAAACTTTACGTGTACCAAACGTCATGCCAAC [XGTACX_site2575]” was tested. Which “gcPBM binding intensity (ln)” value did it give?
**A.** Its value is 7.76 ± 0.7.

**Q.** For “TAATTTCTTATGTATTGTACAAATAATGTATGATAT [XGTACX_site270]”, which “gcPBM binding intensity (ln)” value is on record?
**A.** Its value is 8.04 ± 0.36.

**Q.** Which “gcPBM binding intensity (ln)” value does the source give for “AATCACAAATAAAATAATATGACACAATATAAAATA [CACACA_negctrl_site537]” here?
**A.** The value was 7.71 ± 0.63.

**Q.** Which “gcPBM binding intensity (ln)” value does the source give for “TACTTACACTGTTTTTGTACTTATTTCCCTTTTATT [XGTACX_site2158]” here?
**A.** Its value is 8.11 ± 0.85.

**Q.** Which “gcPBM binding intensity (ln)” value does the source give for “TTCTTGTATTTTCATAGTACATATAATGTCGTATTA [XGTACX_site600]” here?
**A.** Its value is 7.87 ± 0.57.

**Q.** For “TTTATAAAAATGAACACACACATATATATATATATA [CACACA_site3493]”, which “gcPBM binding intensity (ln)” value is on record?
**A.** The value was 9.56 ± 0.67.

**Q.** Which “gcPBM binding intensity (ln)” value does the source give for “AAATATTTATAGGTTTGTACTTATAAATAAAAAAAA [XGTACX_site7360]” here?
**A.** Its value is 7.83 ± 0.41.

**Q.** With “AATATGAAAAGATGAACAACAAAATGGAGAACAATA [GTGCAC_negctrl_site612]” as the sequence, how does the “gcPBM binding intensity (ln)” value read?
**A.** The value was 7.99 ± 0.69.

**Q.** How did the “gcPBM binding intensity (ln)” value turn out when “ATACAAAATTTTTAAGAACACACAAAAATGTACTAT [CACACA_site8817]” was run?
**A.** Its value is 7.79 ± 0.61.

**Q.** How did the “gcPBM binding intensity (ln)” value turn out when “TGAGGTAACTAAATATGTACGTAACGAAGATACATA [XGTACX_site8231]” was run?
**A.** The value was 7.62 ± 0.38.

**Q.** With “ATTCATTCATATGTTACACACACACGCCCACATAAA [CACACA_site7513]” as the sequence, how does the “gcPBM binding intensity (ln)” value read?
**A.** Its value is 8.36 ± 0.62.

**Q.** For “TAAAAAAAGGTTATTGGTACACACATATGTATATAT [XGTACX_site1029]”, which “gcPBM binding intensity (ln)” value is on record?
**A.** The value was 7.81 ± 0.57.

**Q.** With “TTATATATATATATATATATTTACATAATAATATGT [GTGCAC_negctrl_site388]” as the sequence, how does the “gcPBM binding intensity (ln)” value read?
**A.** The value was 8 ± 0.39.

**Q.** Which “gcPBM binding intensity (ln)” value does the source give for “TAAACTTTCCAGTGTTGTACATAATAATTATTATAT [XGTACX_site8896]” here?
**A.** The value was 7.79 ± 0.44.

**Q.** How did the “gcPBM binding intensity (ln)” value turn out when “AAAGATATGAAATATACACACTTCTTTGGTATTATT [CACACA_site6352]” was run?
**A.** The value was 7.43 ± 0.71.

**Q.** For “TATTTATGTATATGCTGTACGCATTTGTGAAACATA [XGTACX_site4688]”, which “gcPBM binding intensity (ln)” value is on record?
**A.** Its value is 8.19 ± 0.25.

**Q.** Which “gcPBM binding intensity (ln)” value does the source give for “AACCAATTAGAAGGATCCAGAACTTATTTGTTTTTA [CACACA_negctrl_site1744]” here?
**A.** The value was 7.22 ± 0.44.

**Q.** How did the “gcPBM binding intensity (ln)” value turn out when “AGTTTGTCAATCAACACACACCTATTTATTATATAT [CACACA_site6030]” was run?
**A.** The value was 7.89 ± 0.42.

**Q.** For “TACAAGCCCAATTCAAGTACATATATATATATATAT [XGTACX_site5569]”, which “gcPBM binding intensity (ln)” value is on record?
**A.** The value was 9.32 ± 0.23.

**Q.** How did the “gcPBM binding intensity (ln)” value turn out when TCATATATCATAACAGTGCAAAAAAAAAAAAATTAT was run?
**A.** The value was 10.09 ± 0.014.

**Q.** How did the “gcPBM binding intensity (ln)” value turn out when “AGAAAATATACAAAACGTACTTATATATTATATCTA [XGTACX_site3104]” was run?
**A.** The value was 7.46 ± 0.3.

**Q.** For “AAAAAAAAAAAAGAAACACACATATATATATATATA [CACACA_site140]”, which “gcPBM binding intensity (ln)” value is on record?
**A.** The value was 9.34 ± 0.057.

**Q.** Which “gcPBM binding intensity (ln)” value does the source give for “GTTTGATTAAACTTGACACACATATATATAAATATA [CACACA_site1784]” here?
**A.** Its value is 7.8 ± 0.49.

**Q.** How did the “gcPBM binding intensity (ln)” value turn out when “GTTAGAGGGAAAAAGAGTACATATATGTGGATAATT [XGTACX_site2064]” was run?
**A.** Its value is 8.3 ± 0.76.

**Q.** For “GTTGCGTATATATACACACATACATATATATATATA [CACACA_site1607]”, which “gcPBM binding intensity (ln)” value is on record?
**A.** The value was 9.29 ± 0.39.

**Q.** Which “gcPBM binding intensity (ln)” value does the source give for “TTATATAATAAAAATTGTACATATTATATATATATT [XGTACX_site3427]” here?
**A.** The value was 7.49 ± 0.4.

**Q.** For “TATGAAAGAAATAGTACACACATAAACATTTGTAAA [CACACA_site2783]”, which “gcPBM binding intensity (ln)” value is on record?
**A.** Its value is 7.86 ± 0.21.
